Data published in PubChem BioAssay (Tox21).
Where “and” joins values, the source holds several entries; their conditions need not be identical. Equal entries are not always repeated. This list was built around the results that the source calls inconclusive (neither active nor inactive); the mix of calls is not that of the screen. For some of these results: A potency beside an inconclusive call is a rough fit, not a confirmed value. The source holds several records for some structures; these can differ, active in one and inactive in another. Calls of active or inactive are those of the source. Unless noted, calls follow the shape of the dose curve; as a rule, active = well fitted curve in the direction sought with a large enough effect in the repeat runs; inconclusive = weak or mixed curves; inactive = no such curve, though single readings can be large; an effect the other way counts as inactive or inconclusive.

How the values were obtained:
[1] = qHTS assay to identify small molecule antagonists of the progesterone receptor (PR) signaling pathway - cell viability counter screen (AID 1346798); also: nearly all actives have a fitted effect of over 50% in size; also: potency is read from the fitted curve at half-maximal effect; as to activity change, negative = cytotoxicity: % is scaled to controls: 0 for no effect and ±100 for the full control effect
Method in brief: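 CellTiter-Glo luminescence; PR-UAS-bla HEK293T, 3,000 cells/well; compound + R5020, 16 hr, 37C/5% CO2; 30 min RT before read.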

[2] = Human pregnane X receptor (PXR) small molecule agonists, qHTS cell viability counter screen (AID 1346977); also: nearly all actives have a fitted effect of over 50% in size; also: potency is read from the fitted curve at half-maximal effect; as to activity change, negative = cytotoxicity: % is scaled to controls: 0 for no effect and ±100 for the full control effect
Method in brief: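 Viability counter screen: CellTiter-Fluor signal in PXR-Luc HepG2 cells, 24hr compound exposure, 37C, 5% CO2.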

[3] = qHTS assay to identify small molecule agonists of the TGF-beta/Smad signaling pathway (AID 1346859; active = well fitted activation curve with a large enough effect in the signal ratio in the repeat runs, not every such curve was filed as active; inconclusive = weak or mixed curves; the % refers to the signal ratio; also: potency is read from the fitted curve at half-maximal effect; as to activation: % is scaled to controls: 0 for no effect and ±100 for the full control effect); details: SBE-bla HEK293T, TGF-beta/Smad beta-lactamase reporter, 5 h; activation: at 76.8 µM (top of the series)
Method in brief: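 After overnight seeding, SBE-bla HEK 293T cells are dosed with compounds in DMSO and kept 5 hr at 37 C, 5% CO2. LiveBLAzer-type FRET substrate is then applied for 2 hr at room temperature.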

[4] = qHTS assay to identify small molecule agonists of the progesterone receptor (PR) signaling pathway - cell viability counter screen (AID 1346799; calls by dose curve; also: nearly all actives have a fitted effect of over 45% in size; also: potency is read from the fitted curve at half-maximal effect)
Method in brief: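 In parallel with the beta-lactamase readout, cytotoxicity toward PR-UAS-bla HEK293T cells was measured by CellTiter-Glo luminescence following 16 hr compound incubation in 2% charcoal-stripped FBS medium.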

[5] = molecular target: Cytochrome P450 2C19 (Homo sapiens) (UniProt P33261); assay: Cytochrome P450 Family 2 Subfamily C Member 19 (CYP2C19) small molecule antagonists: luciferase reporter qHTS assay (AID 1671197); also: nearly all actives have a fitted effect of over 65% in size; also: potency is read from the fitted curve at half-maximal effect
Method in brief: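 Light output is proportional to CYP2C19 activity: proluciferin substrate is converted to luciferin, then detected by a luciferin detection reagent that also stops the 1 h, 37C NADPH-driven reaction. Ketoconazole serves as positive control.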

[6] = molecular target: Cytochrome P450 2C9 (Homo sapiens) (UniProt P11712); assay: Cytochrome P450 Family 2 Subfamily C Member 9 (CYP2C9) small molecule antagonists: luciferase reporter qHTS assay (AID 1671198); also: nearly all actives have a fitted effect of over 50% in size; also: potency is read from the fitted curve at half-maximal effect
Method in brief: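 CYP2C9 activity was measured with a P450-Glo proluciferin substrate. Enzyme–substrate mix was held with compound for 10 min at room temperature, then NADPH regeneration solution was added for 1 h at 37C. Luciferin product was read as luminescence.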

[7] = qHTS assay to identify small molecule antagonists of the TGF-beta/Smad signaling pathway (AID 1346924; active = well fitted inhibition curve with a large enough effect in the signal ratio in the repeat runs, not every such curve was filed as active; inconclusive = weak or mixed curves; the % refers to the signal ratio); details: SBE-bla HEK293T, TGF-beta/Smad reporter, beta-lactamase ratio
Method in brief: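 SBE-bla HEK 293T cells were plated overnight, then received compound in DMSO plus TGF-beta1 (added as a 0.25 ng/mL solution) and were incubated 5 h at 37 C. Beta-lactamase reporter activity was read after 2 h at room temperature with LiveBLAzer B/G FRET substrate (ex 405, em 460/530 nm).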

[8] = Caspase-3/7 induction in HepG2 cells by small molecules, qHTS cell viability counter screen (AID 1346981); also: nearly all actives have a fitted effect of over 30% in size; also: potency is read from the fitted curve at half-maximal effect; as to activity change, negative = cytotoxicity: % is scaled to controls: 0 for no effect and ±100 for the full control effect
Method in brief: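 HepG2, WT, 2,000 cells/well; 5 hr pre-incubation 37 C/5% CO2; compound pin-transferred from DMSO; 16 hr exposure; CellTiter-Fluor, 1 hr; fluorescence read.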

[9] = molecular target: Cytochrome P450 2D6 (Homo sapiens) (UniProt P10635); assay: Cytochrome P450 Family 2 Subfamily D Member 6 (CYP2D6) small molecule antagonists: luciferase reporter qHTS assay (AID 1671196); also: potency is read from the fitted curve at half-maximal effect; nearly all actives have a fitted effect of over 50% in size
Method in brief: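 Read-out is luminescence from luciferin formed by CYP2D6 turnover of a proluciferin substrate, recorded as relative luminescence units. Reactions ran 1 h at room temperature after NADPH regeneration solution was added.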

[10] = molecular target: Nuclear receptor subfamily 1 group I member 2 (Homo sapiens) (UniProt O75469); assay: CYP3A4 induction through human pregnane X receptor (PXR) by small molecules, qHTS assay (AID 1346984); also: potency is read from the fitted curve at half-maximal effect; nearly all actives have a fitted effect of over 40% in size
Method in brief: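 Luminescence readout: luciferase signal after One-Glo (30 min, room temperature), following 3 h at 37C with 3uM final Luciferin-IPA P450 substrate. Cells were DPX-2 (HepG2, PXR/CYP3A4-luc co-transfected) dosed for 24 h.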

[11] = molecular target: Nuclear receptor subfamily 1 group I member 2 (Homo sapiens) (UniProt O75469); assay: Human pregnane X receptor (PXR) activation by small molecules, qHTS assay (AID 1346985); also: nearly all actives have a fitted effect of over 40% in size; also: potency is read from the fitted curve at half-maximal effect
Method in brief: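 DPX-2 cells (HepG2 co-transfected with a PXR response element and a CYP3A4-promoter luciferase construct) were seeded at 2,000 per well, rested 5 hr at 37C, then exposed to DMSO-dissolved compounds for 24 hr. Activation was read as luciferase luminescence.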

[12] = Caspase-3/7 induction in CHO-K1 cells by small molecules, qHTS cell viability counter screen (AID 1346979); details: CellTiter-Fluor fluorescence, 17 h; activity change, negative = cytotoxicity: at 92.4 µM (top of the series); also: nearly all actives have a fitted effect of over 35% in size; also: potency is read from the fitted curve at half-maximal effect
Method in brief: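 Viability readout by fluorescence (CellTiter-Fluor) on wild-type CHO-K1 cells exposed for 16hr at 37C and 5% CO2 to compounds delivered in DMSO; reagent incubated 1hr before reading.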

[13] = molecular target: Nuclear receptor subfamily 1 group I member 2 (Homo sapiens) (UniProt O75469); assay: Human pregnane X receptor (PXR) small molecule agonists, qHTS assay (AID 1346982); also: potency is read from the fitted curve at half-maximal effect; nearly all actives have a fitted effect of over 35% in size
Method in brief: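 Luciferase signal from ONE-Glo (30 min, room temperature) measured activation of hPXR-driven CYP3A4 reporter expression in PXR-Luc HepG2 cells treated with compounds for 24 hr at 37 C.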

[14] = Caspase-3/7 induction in HepG2 cells by small molecules, qHTS assay (AID 1346978); also: nearly all actives have a fitted effect of over 15% in size; also: potency is read from the fitted curve at half-maximal effect
Method in brief: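 Wild-type HepG2 cells (2,000/well) were settled 5 h at 37 C, 5% CO2, then exposed to compounds in DMSO for 17 h. Caspase-3/7 activity was read by luminescence 30 min after adding Caspase-Glo 3/7 reagent at room temperature.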

[15] = molecular target: Nuclear receptor subfamily 1 group I member 2 (Rattus norvegicus) (UniProt Q9R1A7); assay: Rat pregnane X receptor (rPXR) activation by small molecules, qHTS assay (AID 1346983); details: rPXR luciferase reporter cells, One-Glo luminescence, 24 h; max activation: active compounds read high; also: potency is read from the fitted curve at half-maximal effect; nearly all actives have a fitted effect of over 20% in size
Method in brief: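 Cell-based rPXR luciferase reporter assay, 2,000 cells per well, rested 5hr at 37 C before compound addition in DMSO, then 24 hr at 37 C. One-Glo reagent was added and luminescence read after 30 min at room temperature.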

[16] = molecular target: Thyrotropin-releasing hormone receptor (Homo sapiens) (UniProt P34981); assay: qHTS assay to identify small molecule antagonists of the thyrotropin-releasing hormone receptor (TRHR) signaling pathway (AID 1346877; active = well fitted inhibition curve with a large enough effect in the repeat runs, not every such curve was filed as active; inconclusive = weak or mixed curves; also: potency is read from the fitted curve at half-maximal effect)
Method in brief: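 Intracellular calcium fluorescence, read kinetically every second over 3 min, reports TRH-evoked signalling in HEK293 cells carrying TRHR. Test compounds were added 5 min ahead of a 1 nM TRH challenge.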

[17] = Caspase-3/7 induction in CHO-K1 cells by small molecules, qHTS assay (AID 1346980); also: potency is read from the fitted curve at half-maximal effect; nearly all actives have a fitted effect of over 15% in size
Method in brief: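 Wild-type cells were seeded at 1,500 per well and settled 5 hr at 37 C, 5% CO2, then exposed to DMSO-dissolved compounds for 17 hr. Caspase-Glo 3/7 reagent was added, and luminescence was read after 30min at room temperature.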

[18] = activity, negative = inhibition: at 76.8 µM (top of the series) unless noted
Tags tell the direction and shape of the fitted curve or compound fluorescence and quenching.

Sequence of UniProt P10635 (P10635 whole entry, looked up): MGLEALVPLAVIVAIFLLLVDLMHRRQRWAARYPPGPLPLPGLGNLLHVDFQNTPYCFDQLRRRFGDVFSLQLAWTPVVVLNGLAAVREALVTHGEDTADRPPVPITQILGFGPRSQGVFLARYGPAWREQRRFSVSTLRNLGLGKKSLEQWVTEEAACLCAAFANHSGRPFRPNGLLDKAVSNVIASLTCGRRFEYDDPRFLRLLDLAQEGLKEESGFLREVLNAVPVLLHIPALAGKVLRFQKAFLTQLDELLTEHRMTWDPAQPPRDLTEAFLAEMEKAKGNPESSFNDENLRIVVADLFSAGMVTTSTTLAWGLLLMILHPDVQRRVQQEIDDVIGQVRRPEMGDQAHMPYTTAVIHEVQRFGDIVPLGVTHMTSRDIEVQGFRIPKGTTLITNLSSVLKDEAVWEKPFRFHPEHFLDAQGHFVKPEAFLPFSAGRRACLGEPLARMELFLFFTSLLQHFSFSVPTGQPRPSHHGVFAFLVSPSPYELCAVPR
Sequence of UniProt P11712 (P11712 whole entry, looked up): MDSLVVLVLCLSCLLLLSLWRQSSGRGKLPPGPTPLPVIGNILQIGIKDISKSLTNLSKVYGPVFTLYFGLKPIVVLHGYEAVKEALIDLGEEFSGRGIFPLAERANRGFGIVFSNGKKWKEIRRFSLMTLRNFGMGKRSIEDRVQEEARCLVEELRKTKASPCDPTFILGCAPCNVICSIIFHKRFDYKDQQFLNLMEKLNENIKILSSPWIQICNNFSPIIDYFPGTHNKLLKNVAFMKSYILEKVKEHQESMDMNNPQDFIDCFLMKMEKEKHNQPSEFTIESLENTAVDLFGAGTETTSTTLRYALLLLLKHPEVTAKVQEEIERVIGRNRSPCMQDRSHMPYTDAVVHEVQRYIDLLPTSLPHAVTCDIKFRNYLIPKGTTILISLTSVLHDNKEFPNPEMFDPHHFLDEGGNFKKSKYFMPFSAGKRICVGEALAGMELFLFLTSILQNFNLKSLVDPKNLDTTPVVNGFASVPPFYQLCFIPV
Sequence of UniProt P33261 (P33261 whole entry, looked up): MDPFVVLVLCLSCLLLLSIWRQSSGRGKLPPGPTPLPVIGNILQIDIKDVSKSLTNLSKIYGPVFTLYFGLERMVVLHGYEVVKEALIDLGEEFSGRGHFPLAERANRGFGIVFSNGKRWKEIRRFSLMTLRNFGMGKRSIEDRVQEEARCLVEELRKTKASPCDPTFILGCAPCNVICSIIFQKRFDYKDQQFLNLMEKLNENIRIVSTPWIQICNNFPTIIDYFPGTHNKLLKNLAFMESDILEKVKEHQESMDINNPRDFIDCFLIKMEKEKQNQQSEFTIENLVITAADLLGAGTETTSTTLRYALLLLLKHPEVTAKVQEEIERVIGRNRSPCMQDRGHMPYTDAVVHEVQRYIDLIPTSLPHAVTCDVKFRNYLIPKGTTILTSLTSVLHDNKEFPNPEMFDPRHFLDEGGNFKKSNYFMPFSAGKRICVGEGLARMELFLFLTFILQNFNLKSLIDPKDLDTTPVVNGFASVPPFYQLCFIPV
Sequence of UniProt P34981 (P34981 whole entry, looked up): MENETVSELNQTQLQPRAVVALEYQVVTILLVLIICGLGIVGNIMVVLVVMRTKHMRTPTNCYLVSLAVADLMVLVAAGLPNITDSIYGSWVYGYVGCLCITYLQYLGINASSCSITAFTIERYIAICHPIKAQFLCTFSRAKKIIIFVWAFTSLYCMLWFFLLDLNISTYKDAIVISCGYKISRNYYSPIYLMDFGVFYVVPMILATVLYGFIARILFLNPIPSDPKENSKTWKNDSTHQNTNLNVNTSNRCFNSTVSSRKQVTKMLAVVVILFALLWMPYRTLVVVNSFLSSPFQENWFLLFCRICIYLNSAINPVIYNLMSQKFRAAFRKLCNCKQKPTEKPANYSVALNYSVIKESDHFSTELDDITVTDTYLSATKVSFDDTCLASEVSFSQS
Sequence of UniProt Q9R1A7 (Q9R1A7 whole entry, looked up): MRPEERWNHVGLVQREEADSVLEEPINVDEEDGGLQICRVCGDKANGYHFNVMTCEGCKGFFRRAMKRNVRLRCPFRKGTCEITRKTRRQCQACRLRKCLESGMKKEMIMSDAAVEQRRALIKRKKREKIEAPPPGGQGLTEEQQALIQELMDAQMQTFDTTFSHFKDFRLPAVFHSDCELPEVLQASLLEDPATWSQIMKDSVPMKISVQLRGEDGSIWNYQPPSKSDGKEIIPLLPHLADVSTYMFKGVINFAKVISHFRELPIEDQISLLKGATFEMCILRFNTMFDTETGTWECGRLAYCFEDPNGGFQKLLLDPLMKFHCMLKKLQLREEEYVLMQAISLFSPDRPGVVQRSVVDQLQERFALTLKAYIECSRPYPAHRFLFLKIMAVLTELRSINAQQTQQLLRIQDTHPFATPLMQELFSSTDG

Q: For `C=CC(C)(CCC=C(C)C)OC(=O)CC` (configuration not stated), which Potency [1] is on record?
A: inactive

Q: And the Potency [2]?
A: inactive

Q: Which Potency [1] does the source give for `CCCCCCCCCCCC(=O)OCC(C)OC(=O)CCCCC(=O)O` (configuration not stated) here?
A: inconclusive: 13.3 µM [cytotoxic, partial curve, poor fit]

Q: And the Potency [3]?
A: inactive

Q: For `O=C(O)COCC(=O)O`, which Potency [1] is on record?
A: inactive

Q: And the Potency [4]?
A: inconclusive: 17.3 µM [cytotoxic, full curve]

Q: What about the Potency [5] of the same compound?
A: inactive

Q: And the Potency [6]?
A: inconclusive: 89.9 µM [inhibitor, partial curve, poor fit]

Q: For `Cc1nc(-c2ccc(Cl)cc2)oc1COC(C)(C)C(=O)O`, which Potency [1] is on record?
A: inactive

Q: What about the Potency [4] of the same compound?
A: inconclusive: 37.6 µM [cytotoxic, single point]

Q: And the Potency [5]?
A: inactive

Q: For `CC(C)C(=O)Nc1ccc([N+](=O)[O-])c(C(F)(F)F)c1`, which Potency [1] is on record?
A: inconclusive: 68.6 µM [cytotoxic, single point]

Q: And the activity, negative = inhibition [7, 18]?
A: inconclusive: -21.7% and inconclusive: -8.09%

Q: And the Potency [8]?
A: inconclusive: 70.5 µM [cytotoxic, single point] and inconclusive: 77 µM [cytotoxic]

Q: And the Potency [9]?
A: inconclusive: 30.9 µM [inhibitor, partial curve]

Q: Which results are given for `OC(CCN1CCCCC1)(c1ccccc1)c1ccccc1`?
A: Potency [1]: inactive; Potency [2]: inconclusive: 29.8 µM [cytotoxic, partial curve, poor fit]; Potency [8]: inactive; Potency [10]: inconclusive: 14.1 µM [activator, single point]; Potency [11]: inconclusive: 11.2 µM [activator, partial curve, poor fit]; Potency [9]: active: 1.38 µM; Potency [6]: inactive

Q: With `O=[N+]([O-])C(CO)(CO)CO` as the compound, how does the Potency [1] read?
A: inactive

Q: What about the activity, negative = inhibition [7, 18] of the same compound?
A: inconclusive: 13.8%

Q: What about the Potency [12] of the same compound?
A: active: 1.7 µM

Q: And the Potency [8]?
A: active: 4.26 µM

Q: And the Potency [13]?
A: active: 1.35 µM

Q: And the Potency [9]?
A: inconclusive: 62.3 µM [inhibitor, partial curve]

Q: What about the Potency [6] of the same compound?
A: inconclusive: 62.3 µM [inhibitor, partial curve, poor fit]

Q: What does the source list for `CCCc1nc2c(C)cc(-c3nc4ccccc4n3C)cc2n1Cc1ccc(-c2ccccc2C(=O)O)cc1`?
A: Potency [1]: inconclusive: 9.44 µM [rising, partial curve, poor fit]; Potency [3]: inconclusive: 1.9 µM [rising, full curve]; activity, negative = inhibition [7, 18]: inconclusive: 7.76% [at 35.3 µM]; Potency [12]: inconclusive: 33.5 µM [cytotoxic, single point]; Potency [8]: inconclusive: 33.5 µM [cytotoxic, single point]; Potency [13]: inconclusive: 29.8 µM [activator, single point]; Potency [11]: inconclusive: 22.4 µM [activator, single point]; Potency [5]: active: 7.76 µM

Q: What does the source list for `CC(C)(C)C(=O)O`?
A: Potency [1]: inconclusive: 24.5 µM [rising, single point]; activity, negative = inhibition [7, 18]: inconclusive: 0.436%; Potency [5]: inconclusive: 89.8 µM [inhibitor, single point]

Q: Which Potency [2] does the source give for `C=CCn1c(=O)n(CC=C)c(=O)n(CC=C)c1=O` here?
A: inconclusive: 76.7 µM [cytotoxic, single point]

Q: Which Potency [14] does the source give for `OCCc1ccccc1` here?
A: inactive

Q: Which Potency [14] does the source give for `CC(C)(C)NCC(O)COc1ccccc1OCC1CCCO1` (configuration not stated) here?
A: inactive

Q: With `CC(=O)[C@H]1CC[C@H]2[C@@H]3C=CC4=CC(=O)CC[C@@]4(C)[C@@H]3CC[C@]12C` as the compound, how does the Potency [15] read?
A: inconclusive: 7.08 µM [activator, partial curve, poor fit]

Q: For `CCCCC(CC)COC(=O)C(C#N)=C(c1ccccc1)c1ccccc1` (configuration not stated), which Potency [15] is on record?
A: inconclusive: 31.6 µM [activator, partial curve, poor fit]

Q: What about the Potency [10] of the same compound?
A: inconclusive: 1 µM [activator, full curve, poor fit]

Q: And the Potency [11]?
A: active: 10 µM

Q: For `CCCC(O)C(CC)CO` (configuration not stated), which Potency [11] is on record?
A: inactive

Q: With `CCCCCCC(O)CCOC(C)=O` (configuration not stated) as the compound, how does the Potency [1] read?
A: inactive

Q: What does the source list for `CC1(C)O[C@@H]2C[C@H]3[C@@H]4C[C@H](F)C5=CC(=O)CC[C@]5(C)[C@H]4[C@@H](O)C[C@]3(C)[C@]2(C(=O)CO)O1`?
A: Potency [16]: inactive; activity, negative = inhibition ([7]; at 35.3 µM (top of the series)): inconclusive: 0%; activity, negative = inhibition ([7]; at 76.8 µM (top of the series)): inconclusive: 4.61%; Potency [10]: inconclusive: 0.0355 µM [activator, full curve, poor fit]

Q: For `COC(=O)c1ccc(C(=O)OC)cc1`, which Potency [16] is on record?
A: inconclusive: 38 µM [inhibitor, single point]

Q: For `COC(=O)Nc1nc2ccc(Sc3ccccc3)cc2[nH]1`, which activity, negative = inhibition ([7]; at 35.3 µM (top of the series)) is on record?
A: inconclusive: 0.31%

Q: What about the activity, negative = inhibition ([7]; at 76.8 µM (top of the series)) of the same compound?
A: inconclusive: -0.812%

Q: And the Potency [14]?
A: inconclusive: 30.6 µM [activator, partial curve, poor fit]

Q: What about the Potency [17] of the same compound?
A: inconclusive: 33.5 µM [activator, partial curve, poor fit]

Q: With `OCCNCCO` as the compound, how does the Potency [14] read?
A: inactive

Q: For `CC(CN(C)C)C(C)(O)Cc1ccc(Cl)cc1` (configuration not stated), which Potency [4] is on record?
A: active: 16.8 µM

Q: What about the Potency [2] of the same compound?
A: inactive

Q: And the Potency [10]?
A: inconclusive: 35.5 µM [activator, single point]

Q: What does the source list for `Nc1nc(Cl)nc2c1ncn2[C@H]1C[C@H](O)[C@@H](CO)O1`?
A: Potency [4]: inactive; activity, negative = inhibition [7, 18]: inconclusive: 15.9%; Potency [6]: inconclusive: 62.8 µM [inhibitor, partial curve]

Q: For `CCCCCCCCCCCC[N+](C)(C)CCCS(=O)(=O)[O-]`, which Potency [4] is on record?
A: inconclusive: 24.6 µM [cytotoxic, single point]

Q: What about the Potency [12] of the same compound?
A: inactive
